Out of some 310,000 compounds screened, about 2,200 (0.71%) showed an effect of 50% or more. Effects have a minus sign here. The list shows a part of the results.
Biological target: human ether-à-go-go-related gene (hERG) potassium channel (human, UniProt Q12809)
Experiment: primary screen, population patch clamp on CHO cells stably expressing hERG

Chain of human ether-à-go-go-related gene (hERG) potassium channel (Q12809 whole entry, looked up): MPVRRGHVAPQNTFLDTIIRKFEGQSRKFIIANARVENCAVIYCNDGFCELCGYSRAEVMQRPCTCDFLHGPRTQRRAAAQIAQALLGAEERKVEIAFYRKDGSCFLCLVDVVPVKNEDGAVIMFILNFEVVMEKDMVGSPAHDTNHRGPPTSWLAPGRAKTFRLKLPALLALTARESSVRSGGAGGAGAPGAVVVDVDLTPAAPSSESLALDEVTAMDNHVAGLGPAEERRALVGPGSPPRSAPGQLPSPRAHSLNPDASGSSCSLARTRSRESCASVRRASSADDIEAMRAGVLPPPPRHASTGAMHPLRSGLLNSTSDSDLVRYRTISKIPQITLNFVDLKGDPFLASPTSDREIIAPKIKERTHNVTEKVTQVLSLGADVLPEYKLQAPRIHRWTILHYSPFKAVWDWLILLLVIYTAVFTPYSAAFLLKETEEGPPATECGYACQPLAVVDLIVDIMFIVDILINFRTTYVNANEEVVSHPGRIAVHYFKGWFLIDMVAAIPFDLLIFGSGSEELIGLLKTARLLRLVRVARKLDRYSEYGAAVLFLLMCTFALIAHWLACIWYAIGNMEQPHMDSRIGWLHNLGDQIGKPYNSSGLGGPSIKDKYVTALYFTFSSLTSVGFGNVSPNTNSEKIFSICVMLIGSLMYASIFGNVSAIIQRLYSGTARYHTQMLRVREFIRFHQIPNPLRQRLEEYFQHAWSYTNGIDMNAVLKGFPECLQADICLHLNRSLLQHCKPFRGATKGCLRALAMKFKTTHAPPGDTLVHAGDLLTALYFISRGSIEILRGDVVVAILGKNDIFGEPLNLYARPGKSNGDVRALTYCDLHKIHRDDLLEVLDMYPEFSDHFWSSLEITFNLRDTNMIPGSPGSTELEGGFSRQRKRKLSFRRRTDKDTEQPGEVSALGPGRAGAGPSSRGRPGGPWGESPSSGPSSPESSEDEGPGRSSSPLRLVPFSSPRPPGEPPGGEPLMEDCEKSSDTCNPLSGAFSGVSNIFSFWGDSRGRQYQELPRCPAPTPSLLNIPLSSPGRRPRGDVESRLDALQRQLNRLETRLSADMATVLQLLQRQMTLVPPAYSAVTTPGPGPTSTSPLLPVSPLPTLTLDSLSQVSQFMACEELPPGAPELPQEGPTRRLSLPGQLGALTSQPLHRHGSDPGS

Row | Structure (SMILES) | hERG current change (%, negative = inhibition) at 1uM
1 | COc1cc(C(CC(=O)Nc2cc(C)ccn2)N2Cc3ccccc3C2=O)cc(OC)c1OC (stereo not shown) | 9.76%
2 | COC(=O)CC/C(O)=C1\C(=O)CC(C)(C)CC1=Nc1ccccc1OC | 13.8%
3 | Cc1ccc2c(c1)nnn2C1CCN(CC(=O)NNC(=O)c2ccco2)CC1 | 13.5%
4 | CCC(=C(c1ccc(OC)cc1)c1ccc(OC)cc1)c1cn(CC(O)CN(CCO)CCO)c2ccccc12.O=C(O)/C=C\C(=O)O (stereo not shown) | 10%
5 | COC(=O)C1(C)CCC(C(=O)Nc2ccccc2)C1(C)C (stereo not shown) | 8.57%
6 | CCCCCC(=O)NC(CC(=O)OC)c1ccc2c(c1)OCO2 (stereo not shown) | 3.19%
7 | COc1cccc(NC(=O)Nc2cc(C)ccc2OC)c1 | 11.1%
8 | O=C(CSc1nnc2n1CCCCC2)Nc1ccc(N2CCOCC2)cc1 | -1.75%
9 | COc1cccc(NC(=O)CN(C)C(=O)CSc2ncnc3sc(C)c(C)c23)c1 | 11.7%
10 | CCCOc1ccc(C(O)C(CN2CCOCC2)c2ccccc2)cc1.Cl (stereo not shown) | 5.72%
11 | Cn1ccnc1C1CCCCN1Cc1nc(-c2ccc3c(c2)OCO3)no1 (stereo not shown) | 3.68%
12 | Cc1ccc(C(=O)OC/C(O)=C(\C#N)c2nc3ccccc3[nH]2)cc1S(=O)(=O)N1CCOCC1 | -1.51%
13 | Cc1nn(C)c(C)c1NC(=O)c1ccc(Cl)cc1 | 14.8%
14 | COc1ccc(CCNC(=S)N(C)C)cc1OC | 30.2%
15 | CCOC(=O)N(c1ccccc1)P1(=S)OCCO1 | 6.65%
16 | Cc1ccc(C(=O)OC2CCOC2=O)cc1NC(=O)c1ccco1 (stereo not shown) | 11%
17 | COc1cccc(N/C=C/C(=O)c2ccc(Br)cc2)c1 | 12.3%
18 | CCc1cccc2c(C(=O)CSc3nnc(C4CC4)o3)c[nH]c12 | 5.25%
19 | C=CCn1c(SCc2c(C(=O)OC)sc(N)c2C(=O)OC)nnc1-c1ccc(Br)cc1 | -16.1%
20 | CC1CCCCN1CCNC(=O)C1CCN(S(=O)(=O)c2cccc3cccnc23)CC1 (stereo not shown) | 1.57%
21 | Nc1c2ccccc2[nH+]c2ccccc12.[Cl-] | 7.31%
22 | O=C(NC1CC(=O)N(c2ccc3c(c2)OCCO3)C1)N1CCC(O)CC1 (stereo not shown) | 8.06%

Row | Structure (SMILES) | hERG current change (%, negative = inhibition) at 1uM
23 | COc1ccc(N2CC(C(=O)OCC(=O)c3ccc(C)cc3)CC2=O)cc1 (stereo not shown) | 10.8%
24 | CCC(C)NC(=O)c1cn(CC)c2cc(N3CCN(C)CC3)c(F)cc2c1=O (stereo not shown) | 6.99%
25 | CCOC(=O)N1CCC(NC(=O)C2CCN(C(=O)c3cc4sccc4n3CC)CC2)CC1 | 12.2%
26 | CC1CCN(C(=S)NC(=O)c2ccco2)CC1 | 12.9%
27 | CC1CCCCC12NC(=O)N(CC(=O)N1CCN(Cc3ccc(C#N)cc3)CC1)C2=O (stereo not shown) | 3.59%
28 | O=C(C1CC1)N1CCc2cc(S(=O)(=O)NC3CCN(Cc4ccccc4)CC3)ccc21 | 10%
29 | COCCOC(=O)C1=C(N)Oc2c(c(=O)oc3ccccc23)C1c1ccncc1 (stereo not shown) | -4.55%
30 | Oc1ccc(Br)cc1-c1cc(-c2ccccc2F)[nH]n1 | 5.79%
31 | CN(C)c1ccc(C=NCC2COc3ccccc3O2)cc1 (stereo not shown) | 21.7%
32 | O=c1c2[nH]c3cccc(Cl)c3c2ncn1CCN1CCCCC1 | 2.61%
33 | COc1ccc(CCNC(=O)CNS(=O)(=O)c2ccc(N(C)C)c([N+](=O)[O-])c2)cc1OC | 8.96%
34 | COc1cc(C2CC(=O)C=C(O)C2)cc(OC)c1OC (stereo not shown) | 22.1%
35 | CCn1c(=O)c(C(=O)NCCN2CCCCC2)c(O)c2ccccc21.Cl | -3.9%
36 | CCOC(=O)C1=C(C)NC(=O)NC1c1cccc(OC)c1OCc1ccccc1Cl (stereo not shown) | 7%
37 | CC(C)=CCCC(C)CN1CCC(N2CCC(C(=O)N3CCOCC3)CC2)CC1 (stereo not shown) | -8.77%
38 | COc1ccc(Br)cc1/C=N/Nc1ccccn1 | 13.5%
39 | CCn1cc(C(=O)O)c(=O)c2cc(F)c(N3CCN(C(=S)NC(=O)c4ccccc4C)CC3)cc21 | 2.25%
40 | Cc1ccc(NC(=O)C2CCN(S(=O)(=O)c3ccc4c(c3)NC(=O)C(C)S4)CC2)cc1Cl (stereo not shown) | 11.8%
41 | N#CCCN(Cc1ccccc1)C(=O)c1nccnc1C(=O)O | 11.8%
42 | COc1ccc(NC(=O)c2cc(-c3ccc4c(c3)OCO4)on2)cc1 | 10.8%
43 | Cc1ccc(C(=O)Nc2ccc(N3CCOCC3)cc2)cc1S(=O)(=O)N1CCCCC1 | 7.22%
44 | O=C(NCc1ccc(Cl)cc1Cl)C1CCN(S(=O)(=O)c2ccc3c(c2)OCCCO3)CC1 | 3.3%

Row | Structure (SMILES) | hERG current change (%, negative = inhibition) at 1uM
45 | O=C(COc1c(F)c(F)c(C(F)(F)F)c(F)c1F)Nc1ccc(N2CCOCC2)c(Cl)c1 | 13.5%
46 | C#CCN1C(=O)C(O)(CC(=O)c2cc(OC)ccc2OC)c2ccccc21 (stereo not shown) | 11.7%
47 | COc1ccc(C(O)(C2CCCCC2)C(CN2CCCC2)c2ccccc2)cc1.Cl (stereo not shown) | 3.48%
48 | O=C(N[C@@H](Cc1ccccc1)C(=O)NC1CCCCC1)c1ccco1 | 12.7%
49 | Cc1ccc(N=c2c([N+](=O)[O-])nn(-c3ccc4c(c3)OCCO4)n2O)cc1F | 5.64%
50 | CC(C)CCNC(=O)CN(CCCN1CCOCC1)C(=O)Cn1nnc(-c2ccc(F)cc2)n1 | 2.06%
51 | CCOc1ccc(Br)cc1S(=O)(=O)N1CCCC1 | 0.606%
52 | O=C1c2ccccc2-c2nc3ccccc3n21 | 10.5%
53 | Cc1ccc2nc(-c3ccc(NS(=O)(=O)c4c(C)n(C)c(=O)n(C)c4=O)cc3)sc2c1 | 6.05%
54 | O=C(Cn1c(COc2ccc(Cl)cc2)nc2ccccc21)NCC(F)(F)F | 18.5%
55 | Clc1ccc(-n2cc(-c3ccc(Br)cc3)[n+]3c2CCCCC3)cc1.[Br-] | -4.15%
56 | CCOc1ccc(N(C)S(=O)(=O)c2ccc3[nH]cc(C(=O)NCC(OC)OC)c(=O)c3c2)cc1 | 8.98%
57 | CC(C)(C)C(=O)NC(=S)Nc1sc2c(c1C#N)CCCCC2 | 10.6%
58 | CC1(C)Cc2c(cnn2-c2ccccc2)C(NC(=O)CCN2CCCC2=O)C1 (stereo not shown) | 14.2%
59 | COC(=O)/C(=C/c1ccc2c(c1)c1ccccc1n2C)NC(=O)c1ccccc1 | 8.23%
60 | CCOc1ccccc1NC(=O)CSc1nnc2ccc(-c3ccncc3)nn12 | -5.75%
61 | NC(=O)c1nsc(C(=O)N(CCc2ccccc2)C(C(=O)NC2CCCC2)c2ccco2)c1N (stereo not shown) | 1.24%
62 | Nn1c(COc2ccccc2)nnc1SCc1cc(=O)[nH]c2ccccc12 | -5.08%
63 | COc1ccc(N2CCN(Cc3cc(=O)oc4cc5c(cc34)CCCC5)CC2)cc1 | 7.51%
64 | Cc1c(C(=O)NNC(=S)Nc2cccc(Cl)c2)nnn1-c1ccccc1 | 1.39%
65 | CCCCn1c(N)c(N(CCOC)C(=O)c2sc3cc(F)ccc3c2Cl)c(=O)[nH]c1=O | 1.16%
66 | O=c1cc(O)c2sc(Nc3ccc(F)c(Cl)c3)nc2[nH]1 | 29.7%

Row | Structure (SMILES) | hERG current change (%, negative = inhibition) at 1uM
67 | CCOc1cc(NC(=O)c2ccco2)c(OCC)cc1NC(=O)COc1ccccc1 | 10.9%
68 | O=C(c1ccccc1)C1Oc2ccccc2C2CC(c3cccs3)=NN12 (stereo not shown) | 7.35%
69 | Cc1ccccc1C(=O)NCC(=O)OCCOc1ccc(C(C)C)c(C)c1 | 9.24%
70 | N#CCCn1cc(C(=O)N2CCOCC2)c(-c2ccc3c(c2)OCCO3)n1 | 6.82%
71 | CCCCCCCC(O)CC(CC1CCCCC1)C(=O)NN (stereo not shown) | 5.39%
72 | COc1ccc(NC(=O)c2c3c(nc4ccccc24)CCN(Cc2ccccc2)C3)c(OC)c1 | -0.95%
73 | CC1CCCN(C(=O)c2cn(-c3ccccc3)nc2-c2cccnc2)C1 (stereo not shown) | 5.87%
74 | Cc1ccc(NC(=O)NCCN2CCN(c3ccccc3)CC2)cc1Cl | 11.7%
75 | C/C(=N\OC(=O)c1cccc(Cl)c1)c1sc(C)nc1C | 13.5%
76 | CN(C)CCNC(=O)C(=O)NCC1OCCN1S(=O)(=O)c1ccc2c(c1)OCCO2 (stereo not shown) | 10.5%
77 | Cc1cc(NS(=O)(=O)c2ccc(NC(=O)C(c3ccccc3)c3ccccc3)cc2)no1 | 0.758%
78 | CCN(CC)C(=O)Cn1cc(C(=O)C(=O)N(CC)C2CCCCC2)c2ccccc21 | 0.97%
79 | Cc1ccc(C)c(NC(=O)c2nnn(Cc3ccccc3)c2N)c1 | 0.176%
80 | CC(NC(=O)Cc1ccc(S(=O)(=O)N2CCCCC2)cc1)c1ccccc1 (stereo not shown) | 10.6%
81 | O=c1nc2scc(-c3ccccc3)n2c2ccccc12 | 11.5%
82 | Cn1cc(-c2nc3ccccc3[nH]2)c2ccccc21 | 1.18%
83 | CC(C)(C)NC(=O)c1ccc2c(c1)N(CC(=O)N1CCCCC1)C(=O)C(C)(C)O2 | 14.3%
84 | Cc1ccc(C(C)C)c(OCC(=O)OCc2c(C)noc2C)c1 | 10.8%
85 | O=C(COc1cccnc1[N+](=O)[O-])Nc1ccc(N2CCOCC2)cc1 | 8.5%
